Assay results: the supplement of paper PMC3334620
The full ranking holds about 33,000 sequences; the median of “E-score (-0.5 to 0.5)” is about -0.04, and the highest 2% start at about 0.36. The list shows a part of the results.

The sequences below were run against T1, Hmlalpha2 (UniProt P0CY09) (assay: PBM E-score (8-mer binding enrichment) (E-score (-0.5 to 0.5)); higher = stronger / more preferred TF binding; most listed sequences are background and not binding sites). Conditions: protein concentration: 200 nM; construct: GST-full length.
T1 sequence: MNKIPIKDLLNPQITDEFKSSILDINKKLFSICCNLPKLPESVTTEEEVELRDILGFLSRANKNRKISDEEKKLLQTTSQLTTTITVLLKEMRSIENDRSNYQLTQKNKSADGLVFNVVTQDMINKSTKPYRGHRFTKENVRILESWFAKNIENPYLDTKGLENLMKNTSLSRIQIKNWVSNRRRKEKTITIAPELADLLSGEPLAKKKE
How it was run: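 Yeast transcription factors carrying a GST tag, as full-length proteins or DNA-binding domains, were produced by PURExpress in vitro transcription/translation. About 100-200 nM protein was applied to universal all-10-mer Agilent arrays, double-stranded by primer extension on fresh or once-stripped slides. Bound protein was detected with fluorescent anti-GST, and scans were normalised with masliner. The Universal PBM Analysis Suite gave each ungapped eight-base word, pooled with its reverse complement, an E-score, a modified Wilcoxon-Mann-Whitney statistic.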

Row | Sequence | PBM E-score
1 | ATAAAGGA | -0.121
2 | AAAAGAAC | 0.203
3 | CTCGATAA | 0.055
4 | CCCCGTCG | -0.269
5 | AGACACAT | 0.128
6 | CGGTATGC | -0.169
7 | CAGTATGA | 0.0334
8 | CACCACGA | 0.0167
9 | AGACACAG | 0.114
10 | ACGGCATG | 0.0837
11 | AAAATAAT | 0.222
12 | AGTCCGGA | 0.0377
13 | AGTAGCGA | -0.0382
14 | GACCTGTA | -0.0109
15 | CCAATAAA | 0.0648
16 | CTGGTTGA | -0.0845
17 | GGAAGCTA | -0.236
18 | CCAACCGC | -0.16
19 | AAATCCCA | -0.0743
20 | GGTGGCTA | -0.22
21 | TCCGCCCA | -0.298
22 | TAGGTATA | 0.0844
23 | AAATATGC | -0.0417
24 | CCGTATTA | 0.1
25 | GAATGGAC | 0.0224

Row | Sequence | PBM E-score
26 | TTCTACAA | 0.314
27 | GTTGCAGA | -0.0831
28 | TCCCTTAA | 0.0622
29 | AAGATTAT | -0.211
30 | TAATACAA | 0.375
31 | CCGGGTCC | -0.344
32 | AATTTAGA | 0.0535
33 | GATTATTA | 0.0539
34 | CGCCCACG | -0.172
35 | CCGCTGTA | 0.0278
36 | ACGACTCA | -0.146
37 | CAATCGCA | 0.0503
38 | TTAATTAA | 0.189
39 | ATGGGCCG | -0.24
40 | GTCACTTA | 0.0407
41 | GACGCATC | -0.0682
42 | CATAGGCA | -0.0253
43 | CGCCTAGA | -0.233
44 | GGTCCTAA | 0.00625
45 | TCCCCGAA | -0.307
46 | GGGAAGTA | 0.0183
47 | ATGGTGTC | -0.149
48 | ACGATTCC | -0.04
49 | CAATGGGA | -0.141
50 | GTTATTGA | 0.204

Row | Sequence | PBM E-score
51 | ATGGTATC | -0.171
52 | ATTCGTCA | 0.0398
53 | ACCCTGAC | -0.269
54 | GGATCTGA | -0.247
55 | AGTGTGCG | -0.0715
56 | CCTTAGGC | -0.273
57 | AGTATCTA | 0.155
58 | CAATTGCG | -0.0486
59 | GTTCACTA | 0.0772
60 | CCCGTCGG | -0.175
61 | AATGTTCC | 0.0727
62 | AGGTCATC | -0.288
63 | GCCCCAAC | -0.086
64 | AGTCCGTA | -0.0328
65 | GAAGAGCC | -0.156
66 | CCCCTATC | -0.289
67 | ACTCGCAC | -0.214
68 | ACCGCACG | -0.0301
69 | ATATAGTG | -0.0585
70 | ACATAGCG | 0.262
71 | CTTTGCAC | 0.206
72 | CAGGAGAC | -0.0717
73 | GCATCCTA | -0.194
74 | ACAGCCTA | 0.11
75 | ATCAACTG | -0.0655

Row | Sequence | PBM E-score
76 | AAGAGGTC | -0.319
77 | GCCGTTAA | 0.0461
78 | ATCCCAGG | -0.278
79 | CCAGTTAC | -0.106
80 | TGGCAAAA | 0.0108
81 | CCTAAAAA | -0.111
82 | ACCAGACT | -0.0501
83 | ATTTGTGG | -0.034
84 | ACAATTAT | 0.214
85 | ACGAAGTG | 0.115
86 | ATAAGCCG | -0.225
87 | GCGTTCAA | 0.199
88 | TCAAGTAA | 0.265
89 | CTTAAATC | 0.0146
90 | CTCGTTCA | 0.163
91 | ATCCGGGG | -0.186
92 | TAAAACTA | 0.194
93 | TGGCGACA | 0.0218
94 | AATTAACA | 0.425
95 | CTGCTTCC | -0.176
96 | CTATACGC | 0.199
97 | AGAAGTTC | 0.0192
98 | GTCGAAAA | 0.171
99 | ATAATGGC | 0.0247
100 | CAGTCCCA | -0.165

Row | Sequence | PBM E-score
101 | CAACCTAG | 0.0593
102 | AGCCTGGG | -0.185
103 | AATGCTCC | -0.269
104 | CCATGCAA | 0.219
105 | AAAGCATT | 0.0558
106 | ACTGGCTG | -0.286
107 | ACAACTCC | -0.14
108 | GCGACTAC | 0.0703
109 | AACCCAGT | 0.0666
110 | CGATCTAA | 0.133
111 | GGGGGACC | -0.319
112 | CACTGCCA | -0.0577
113 | AAGGTGTA | 0.25
114 | CAAATCCG | -0.112
115 | CAATGGTC | 0.0502
116 | AAGGGAAG | 0.015
117 | AGAATACG | 0.192
118 | CACAACAG | 0.0709
119 | CTTGGTCC | -0.159
120 | GAACACAC | 0.158
121 | AACCGGGA | -0.142
122 | CAGCAGGA | -0.151
123 | TCAGTGCA | -0.0496
124 | AAAGGTTC | -0.148
125 | CCGGCAGA | -0.225

Row | Sequence | PBM E-score
126 | CGGCGATC | -0.133
127 | GCGCCGGA | -0.196
128 | GCTTAACA | 0.378
129 | ATCGAGCC | -0.17
130 | CGGCCCCA | -0.352
131 | TAGTGGAA | -0.123
132 | CTCACATA | 0.0587
133 | TCGGTGCA | -0.0717
134 | CATGCATA | 0.251
135 | TGAAGGCA | -0.0513
136 | GTGCAGAA | 0.0502
137 | AGATTAGC | -0.0707
138 | AGAGACAG | -0.208
139 | CTTGCGAC | -0.285
140 | GCAGAGCA | -0.0388
141 | AACTCCAC | -0.0368
142 | AAGGTCAA | -0.0718
143 | GAGTCCTA | 0.0168
144 | ATAGGGTA | -0.184
145 | CTAGGATC | -0.114
146 | TAATTCCA | 0.144
147 | ATTTGGAA | 0.028
148 | GACCAGGC | -0.25
149 | ACGCTTAT | 0.0536
150 | CAATAGTA | -0.0178

Row | Sequence | PBM E-score
151 | AAGTACTC | 0.022
152 | AAATCCAG | -0.00386
153 | GTTGTCCA | 0.194
154 | GTTCGTAA | 0.217
155 | AGAATGAT | -0.126
156 | CTTTAGTA | -0.0167
157 | AGCTGTGA | -0.0619
158 | TCGAGAGA | -0.135
159 | GCACGACA | 0.115
160 | AAAAGTCG | -0.175
161 | ACGGAATC | -0.0314
162 | GATTCTAC | 0.158
163 | GTGATTAA | 0.166
164 | AAACCAGT | -0.0439
165 | CGGCCGCA | -0.107
166 | CAATCTCA | 0.0269
167 | AACTCCAT | -0.0979
168 | AAACGCGT | 0.312
169 | GCGGTTCC | -0.14
170 | GCAGCCAC | -0.183
171 | ACCCTGTG | 0.156
172 | CCCGGTTA | -0.193
173 | ATACTCCA | -0.0446
174 | CGAACTCA | -0.111
175 | AGTTTGCG | -0.0236

Row | Sequence | PBM E-score
176 | AATATTTC | 0.0665
177 | TAGGAGCA | -0.0738
178 | AAGAATGG | -0.179
179 | CTGCCCTA | -0.277
180 | CGATCGTA | 0.0592
181 | GATGTCGA | 0.126
182 | CTAAGCCC | -0.318
183 | AAGGTAAT | 0.231
184 | CTACCTAG | -0.122
185 | CGAGGGAC | -0.287
186 | AACTGGCG | -0.059
187 | CTACAAGC | 0.28
188 | CTCGTTCC | -0.204
189 | GGTAGCGA | -0.193
190 | ACAAAATG | 0.278
191 | ATACGCTG | 0.058
192 | ATTCTATA | 0.0707
193 | TCCTATCA | -0.172
194 | CATGGGCG | -0.0229
195 | GGACGAGA | -0.126
196 | CTAAGGTC | -0.156
197 | GCCTGAGA | -0.179
198 | AAGAACTC | 0.159
199 | TATACACA | 0.437
200 | GCAAGCAC | -0.0333

Row | Sequence | PBM E-score
201 | ATGTCATG | 0.388
202 | CGTCACAA | 0.0504
203 | CGAGACCA | -0.0743
204 | GATACCGC | 0.0233
205 | ATCATGTA | 0.472
206 | ATTCGTAA | 0.155
207 | CAGTTAGA | -0.175
208 | ATGATCGC | 0.00054
209 | CCCCTCTC | -0.33
210 | AGCGGGAA | -0.01
211 | ATGACACA | 0.302
212 | AATTGATA | 0.127
213 | CTTCCTCA | -0.29
214 | AGATCCTG | -0.148
215 | CAGTACCA | -0.101
216 | CAGTGGAA | -0.216
217 | CCGCATCA | -0.164
218 | GTTACGCA | 0.277
219 | CCTTAACC | -0.0995
